Test results: article PMC4336329 (PLoS ONE, 2015)
Among all 310,000 compounds or so, about 2,200 (0.71%) showed an effect of 50% or more. Effects have a minus sign here. Some of the results follow.

Each molecule was assayed against human ether-à-go-go-related gene (hERG) potassium channel (human, UniProt Q12809) (assay: primary screen, population patch clamp on CHO cells stably expressing hERG).
Chain of human ether-à-go-go-related gene (hERG) potassium channel (Q12809 whole entry, looked up): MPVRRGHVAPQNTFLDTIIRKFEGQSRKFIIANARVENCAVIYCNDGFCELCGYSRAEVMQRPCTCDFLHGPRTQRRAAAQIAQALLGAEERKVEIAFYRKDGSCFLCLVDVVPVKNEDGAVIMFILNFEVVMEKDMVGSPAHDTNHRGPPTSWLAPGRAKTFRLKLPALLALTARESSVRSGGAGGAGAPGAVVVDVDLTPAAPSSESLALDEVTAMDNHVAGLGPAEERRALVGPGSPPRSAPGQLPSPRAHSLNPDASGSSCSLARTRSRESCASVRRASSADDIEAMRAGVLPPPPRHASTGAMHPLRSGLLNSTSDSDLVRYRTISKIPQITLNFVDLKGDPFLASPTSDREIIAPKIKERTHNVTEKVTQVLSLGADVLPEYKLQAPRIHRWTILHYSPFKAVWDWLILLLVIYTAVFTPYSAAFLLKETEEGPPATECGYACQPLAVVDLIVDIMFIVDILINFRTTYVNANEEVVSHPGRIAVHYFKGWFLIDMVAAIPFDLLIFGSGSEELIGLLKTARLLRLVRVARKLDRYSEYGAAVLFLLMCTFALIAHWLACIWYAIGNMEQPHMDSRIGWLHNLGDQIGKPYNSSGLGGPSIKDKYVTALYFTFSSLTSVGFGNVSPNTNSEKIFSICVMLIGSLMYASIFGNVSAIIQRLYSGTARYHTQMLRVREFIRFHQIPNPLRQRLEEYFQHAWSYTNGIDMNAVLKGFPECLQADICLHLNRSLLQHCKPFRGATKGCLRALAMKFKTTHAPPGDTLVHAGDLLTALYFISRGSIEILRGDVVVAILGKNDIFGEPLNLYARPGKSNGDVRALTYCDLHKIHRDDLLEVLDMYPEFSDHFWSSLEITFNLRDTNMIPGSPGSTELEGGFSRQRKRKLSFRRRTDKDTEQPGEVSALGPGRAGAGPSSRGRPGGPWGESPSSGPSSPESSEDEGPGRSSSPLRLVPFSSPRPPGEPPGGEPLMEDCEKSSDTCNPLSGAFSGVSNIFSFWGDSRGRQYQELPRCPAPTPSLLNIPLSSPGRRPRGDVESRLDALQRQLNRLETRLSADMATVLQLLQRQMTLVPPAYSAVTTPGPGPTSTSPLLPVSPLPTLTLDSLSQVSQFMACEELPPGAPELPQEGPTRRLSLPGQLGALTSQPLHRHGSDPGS

SMILES | hERG current change (%, negative = inhibition) at 1uM [%]
Cc1cccc(Oc2cnn(C(C)(C)C)c(=O)c2Cl)c1 | 4.42
CCCCCCN(CCCCCC)C(=O)Cc1c(-c2ccc(F)cc2)[nH]c2ccccc12 | 18.3
CCn1c(C(=O)N2CCc3ccccc3C2)cc2oc3ccccc3c21 | 18.1
CCCc1cc(=O)n2[nH]c(NCc3cccs3)nc2n1 | 10.2
Cc1ccc(CSc2ncnc3ccccc23)cc1 | 6.86
COc1c(O)cccc1/C=N/NC(=O)Cn1ccnc1C | 7.84
COc1ccc(-c2nn(-c3ccccc3)cc2/C=N/N=C(N)N)cc1OC | 8.68
Cc1ccc(NC(=O)COC(=O)c2cc(Cl)ccc2[N+](=O)[O-])c(C)c1 | 1.75
O=C(O)CCn1c(SCc2cccc3ccccc23)nc2ccccc21 | 8.52
CC(C)(C)c1csc(Sc2ccc([N+](=O)[O-])cn2)n1 | 7.57
Cc1nnc(SCc2cc([N+](=O)[O-])cc3c2OCOC3)n(N)c1=O | 13
CC(NC(=O)c1cc(S(=O)(=O)N(C)C)ccc1Cl)C1CC2CCC1C2 (centres unmarked) | 14.2
COc1ccc(OCc2nc3ccc(S(=O)(=O)Nc4ccccc4Cl)cc3[nH]2)cc1 | 8.76
COc1ccc2c([N+](=O)[O-])c(N3CCCC3)[nH]c2c1 | 9.6
COC(=O)c1ccc(C(=O)OC)c(NC(=S)N2CCN(C(=O)C3CCCO3)CC2)c1 (centres unmarked) | 7.79
O=C(O)CCCn1ccc2cc(S(=O)(=O)N3CCCC3)ccc21 | 15.7
Cn1nnnc1SCC1=C(C(=O)O)N2C(=O)C(NC(=O)Cn3nc(C(F)F)cc3C3CC3)C2SC1 (centres unmarked) | 10
NC(=O)c1c(NC(=O)CCCC(=O)O)sc2c1CCCCCC2 | 5.98
Cc1cccc[n+]1CC(=O)c1ccc(Cl)cc1.[Cl-] | 17.9

SMILES | hERG current change (%, negative = inhibition) at 1uM [%]
Brc1ccc(-c2noc3c2-c2nc(C4CCCCC4)sc2CC3)cc1 | 16.9
CC[C@@]12C(=O)N(c3ccc(OC)cc3)C(=O)N1[C@H](c1cccc(C)c1)[C@@H]1C(=O)N(Cc3ccccc3)C(=O)[C@@H]12 | -3.71
Cc1cc(C)n(CC(O)COc2ccc3ccccc3c2)n1 (centres unmarked) | 7.08
COc1ccc(NC(=O)Cc2ccc(Cl)cc2)cc1S(=O)(=O)N1CCCCC1 | -1.25
Cc1ccc(Oc2ccc(-c3nc(N)nc(N)n3)cc2)cc1C | 2.33
CCn1c(-c2csc3c2CCC(C)C3)n[nH]c1=S (centres unmarked) | 9.99
CC(NC(=O)CN1CCN(CC(=O)Nc2ccccc2Cl)CC1)c1ccc(Br)cc1 (centres unmarked) | -10.2
COc1cc(OC)c(NC(=O)CCNC(=O)Cn2cnc3ccccc3c2=O)cc1Cl | 3.54
Cc1cc(C)nc(S/C=C/C(=O)c2ccc(F)cc2)n1 | 15.8
Cc1ccc(SC(C)C(=O)Nc2ccncc2)cc1 (centres unmarked) | -10.3
OCCCNc1nc(-c2ccccc2)c2cc(Cl)ccc2n1 | 5.65
O=C(Nc1ccc(Cl)c(Cl)c1)c1csc(-c2ccccc2)n1 | 9.67
O=C(NCCCN1CCOCC1)c1sc2cc(Cl)ccc2c1Cl | 6.47
O=C(CNCCc1ccccc1)Nc1ccc(C(=O)N2CCCCC2)cc1.O=C(O)C(=O)O | 7.88
O=C(CSc1ccc2nnc(-c3ccc(F)cc3)n2n1)N1CCOCC1 | -2.83
N#Cc1ccc(-c2cccnc2)nc1SCc1ccc(Cl)cc1Cl | 18.5
COCCCNCCOc1ccccc1-c1ccccc1.O=C(O)C(=O)O | 3.07
CCCN1CCN(S(=O)(=O)c2ccc3c(c2)OCCO3)CC1 | 7.09
CC(C)(C)CC(C)(C)NC(=O)c1ccc2snnc2c1 | 7.19

SMILES | hERG current change (%, negative = inhibition) at 1uM [%]
NC(=O)COC(=O)CCCSc1nc2ccccc2s1 | 7.55
Cc1ccc(NC2=C(Cl)C(=O)OC2OC(=O)c2ccccc2)c(C)c1 (centres unmarked) | 10.5
CCN(CC)C(=O)C1CCN(S(=O)(=O)c2ccc3oc4ccccc4c3c2)CC1 | 16.7
CCN(CC(=O)Nc1ccc(NC(C)=O)cc1)CC(=O)Nc1ccccc1C(=O)c1ccccc1 | -1.86
COc1ccccc1C1C(C#N)=C(N)Oc2c1c(-c1ccccc1)nn2-c1ccccc1 (centres unmarked) | 6.2
Cc1cc2c3nonc3ccc2n1C | 7.1
CCn1c(SCc2ccc(C(=O)Nc3cc(C)cc(C)c3)cc2)nnc1-c1ccncc1 | -16.3
Cc1sc2nc(SCc3nc4ccccc4[nH]3)n(Cc3ccco3)c(=O)c2c1C | 9.72
O=C(NCc1ccccc1Cl)C1(S(=O)(=O)c2ccc(Cl)cc2)CC1 | 7.67
Cl.O=C(OCC1CCCN2CCCCC12)c1ccc2c(c1)OCO2 (centres unmarked) | -0.603
CCn1ccc(=O)c2cc3c(cc21)OCO3 | 9.21
COc1ccccc1C(=O)NCCC(=O)NNC(=O)c1ccccc1O | 13.2
Cc1cccc(-c2nc(CN3CCCC(C(=O)NC4CCCCC4)C3)c(C)o2)c1 (centres unmarked) | -19.2
O=C(Nc1nnc(C2CC2)s1)c1cccc(S(=O)(=O)N2CCc3ccccc32)c1 | 12.2
COc1ccc(OC)c(/C=N/NC(=S)NCCc2ccccc2)c1 | 11.6
CCOC(=O)C1=C(N)OC2=C(C(=O)CCC2)C1c1ccc2c(c1)OCO2 (centres unmarked) | 7.78
O=C(NC1CC1)c1ccc(CN(c2ccccc2)S(=O)(=O)c2ccccc2)cc1 | 5.92
N#Cc1c(NC(=O)CSc2ncnc3sccc23)oc(-c2ccco2)c1-c1ccco1 | 15.3
